# Test results taken from patent publication US20260216242A1, “ALPP-SPECIFIC VARIANT ANTIGEN BINDING MOLECULES” (ALMAC DISCOVERY LIMITED, priority 2022, published 2026).
# Changes are numbered by the printed parent chain. Names may count otherwise.
# B1: D10-hFc (S239C): D10 VHH fused via [G4S]3 linker to human IgG1 Fc with S239C (SEQ ID NO: 98) (protein)
# chain: QVQLVESGGGLVQPGGSLRLSCAASGSIFSVNTMGWYRQAPGKQRDLVAVATSGGTIHYADSVKGRFTISRDNAKNTVYLQMNSLKPEDTAVYYCNLVVPYGMIAGDHDYWGQGTKVTVSSGGGGSGGGGSGGGGS[human IgG1 Fc with changes not spelt out]
# B2: C07-hFc (S239C): C07 VHH fused via [G4S]3 linker to human IgG1 Fc with S239C (protein)
# chain: QVQLVESGGGLVQAGESLRLACAASGTIFSGNAVGWYRQAPEKQREWVSSITDYGDTDYAEAVKGRFTISRDNAKNTVYLQMNSLKPEDTAVYYCYVYQRGESEEYWGQGTQVTVSSGGGGSGGGGSGGGGS[human IgG1 Fc with changes not spelt out]
# B3: A06-hFc (S239C): A06 VHH fused via [G4S]3 linker to human IgG1 Fc with S239C (SEQ ID NO: 97) (protein)
# chain: QVHLVESGGGLVQAGGSLRLSCAASGRTFLSMGWFRQAPGKEREFVAAISWTGGSTGYADSVKGRFTISRESDKETMYLQMNSLKPEDTAVYYCAARGDVYYGGDDATRYKYWGQGTQVTVSSGGGGSGGGGSGGGGS[human IgG1 Fc with changes not spelt out]
# B4: E06-hFc (S239C): E06 VHH fused via [G4S]3 linker to human IgG1 Fc with S239C (SEQ ID NO: 99) (protein)
# chain: QVHLVESGGGLVQAGGSLRLSCAASRRSFSEYAMGWFRQAPGKEREFVAAIGWSGVIEYADSVKGRFTISRDNAKDTVYLQMNSLKPEDTAVYYCAAGLGIRVVSQTPAYWGQGTQVTVSSGGGGSGGGGSGGGGS[human IgG1 Fc with changes not spelt out]
# B5: E10-hFc (S239C): E10 VHH fused via [G4S]3 linker to human IgG1 Fc with S239C (SEQ ID NO: 100) (protein)
# chain: QVQLVESGGGLVQAGGSLRLSCAVSGRALSDYNIGWFRQAPGKEREFVARKTWDGSSTRYDDSVKGRFTVSIEDAKNTAYLQMSSLKTEDTAVYYCAAGRYSRARGWEYDYWGQGTQVTVSSGGGGSGGGGSGGGGS[human IgG1 Fc with changes not spelt out]
# B6: F05-hFc (S239C): F05 VHH fused via [G4S]3 linker to human IgG1 Fc with S239C (SEQ ID NO: 101) (protein)
# chain: QVQLVESGGGLVQAGGSLRLSCAASGRAFGDYNIGWFRQAPGKEREFVARRTWDGSSTRYDDSVKGRFTVSIDNAKNTAYLQMNSLKTEDTAVYYCAAGRYSRVRGWEYDYWGQGTQVTVSSGGGGSGGGGSGGGGS[human IgG1 Fc with changes not spelt out]
# B7: B01-hFc (S239C): B01 VHH fused via [G4S]3 linker to human IgG1 Fc with S239C (protein)
# chain: QVQLVESGGGLVQAGGSLRLSCEVTRSPMPIDTMAWYRQAPGRQRELVAIISRSGSTNYADSVKGRFTISRNDTKSTMYKSTMYLKMNTLELEDTGVYYCNAVGLWNGAEYWGQGTQVTVSSGGGGSGGGGSGGGGS[human IgG1 Fc with changes not spelt out]
# Tested on: rhesus monkey ALPP
# Test: BLI cross-species reactivity, rhesus monkey ALPP
# Format: binding
# Conditions: VHH-hFc, KD apparent format
# Description: (§1) Binding kinetics were determined using the Biolayer Interferometry (BLI) Octet K2 or R4 system (Sartorius). Human ALPP, ALPPL2 and ALPL all fused with a disulphide stabilised leucine zipper (SEQ ID NO: 265, SEQ ID NO: 266, and SEQ ID NO: 267) and ALPI His (SEQ ID NO: 264) were used in BLI experiments. For KD apparent measurements, the ALPP proteins were immobilised in sodium acetate pH5 buffer to AR2G sensors using amine coupling. To measure 1:1 interactions, AHC biosensors were used to immobilise Fc-fused proteins. All assays were conducted in HBS-EP with a plate temperature of 25° C. Ka (M^−1s^−1), Kd (s^−1) and KD (nM) values were determined using Octet Data Analysis High Throughput software (Sartorius) for Biolayer Interferometry.
# (§2) To assess cross-species reactivity of the ALPP/ALPPL2 targeting VHH-hFc fusions, BLI was conducted using mouse ALPPL2 (NCBI #NP_031459), rhesus monkey ALPP (NCBI #XP_028687061) and cynomolgus monkey ALPP (NCBI #XP_045223825). Each of these were expressed as cysteine-stabilised leucine zipper fusions (SEQ ID NO: 271, SEQ ID NO: 272 and SEQ ID NO: 273). BLI was conducted as described above.
Molecule,rmALPP Ka [M⁻¹ s⁻¹],rmALPP Kd [s⁻¹]
B1,126000,<1e-07
B2,667000,0.000481
B3,228000,<1e-07
B4,752000,<1e-07
B5,544000,<1e-07
B6,1030000,0.0000869
B7,194000,0.00000481

# Same assay, conditions: VHH-hFc, KD apparent; read-out: rmALPP KD
row,Molecule,Kd [nM]
1,B6,0.276

# Tested on: cynomolgus monkey ALPP
# Test: BLI cross-species reactivity, cynomolgus monkey ALPP
# Format: binding
# Conditions: VHH-hFc, KD apparent format
# Description: as §1, §2
Molecule,CynoALPP Ka [M⁻¹ s⁻¹],CynoALPP Kd [s⁻¹]
B1,1090000,<1e-07
B3,664200,<1e-07
B4,973900,0.00025
B5,622400,<1e-07
B6,105800,<1e-07
